The list shows a part of the results.

The text below walks through data of the supplement of paper PMC11417369.

This experiment has as its system PF3D7_0420300 AP2 domain 1 (GST-tagged). The experiment can be described thus: gcPBM binding intensity (ln(normalized median fluorescence intensity)); higher = stronger DNA binding. The gist of the method: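 Each value is the highest Masliner-normalised natural-log median intensity across replicate spots of either orientation of a probe. The probes were primer-extended double-stranded 36-bp intergenic genomic sequences on an Agilent 4 × 180k array, alongside negative controls, exposed for 1 h to GST-tagged P. falciparum DNA-binding domains expressed in E. coli. Bound protein was picked up with Alexa488 anti-GST antibody and scanned at 488 nm.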
In the case of “ATCTATATTTTTATAACACACAATGATGTACATTAC [CACACA_site6633]”, the “gcPBM binding intensity (ln)” value is 9.48.

As for “TGAAAATATTTTATATGTACATATATTATCAATACA [XGTACX_site92]”, the “gcPBM binding intensity (ln)” value was 9.09.

Consider “TAGAATAATCTATAAACACACAAACCCAACAAAAGA [CACACA_site6132]”, for which the “gcPBM binding intensity (ln)” value was found to be 9.86.

For the sequence “ATTTACCCTTGCCATGCACACTTTTTTATAGAAAAT [CACACA_site5857]”, the “gcPBM binding intensity (ln)” value stood at 9.53.

“TATTAATACAGACACACACACACACTAATTAAAATA [CACACA_site7967]”: the “gcPBM binding intensity (ln)” value is 10.1.

On to “AATATATAATTAATTGCACACCTTGTCACGCCAAAA [CACACA_site1174]”, for which the “gcPBM binding intensity (ln)” value was found to be 9.23.

On to “ATATATAAATTTAATACACACCCAAAAAAAAAAAAA [CACACA_site7719]”, for which the “gcPBM binding intensity (ln)” value worked out at 9.53.

As for “GAATGAATACGTTTTACACACTTGAATATAATTTCA [CACACA_site989]”, the “gcPBM binding intensity (ln)” value came to 9.4.

Consider “TAAATATATAAACACACACACATTAATACAGATATT [CACACA_site5851]”, for which the “gcPBM binding intensity (ln)” value came to 10.2.

On to “AAAATTATAAAATGGGCACACATGAAGATTGTAGTA [CACACA_site2226]”, for which the “gcPBM binding intensity (ln)” value was 9.58.

For “TAAAGAGTTACCATTTGTACTTACGCACACATAAAA [XGTACX_site3145]”, the “gcPBM binding intensity (ln)” value is 9.28.

As to “TATATTTGAAATATATGTACTTATAATACAGTTTAA [XGTACX_site8039]”, the “gcPBM binding intensity (ln)” value amounted to 8.95.

On to “CACAGATAAATTAACACACACACACGGATATTTATA [CACACA_site7788]”, for which the “gcPBM binding intensity (ln)” value amounted to 10.2.

With “ATGTATACAAATATATGTACGTATGTTCTCTTCTTT [XGTACX_site7865]”, the “gcPBM binding intensity (ln)” value is 9.4.

For the sequence “TTATTAGGTATATATGCACACAATACCCAAAACAAC [CACACA_site4221]”, the “gcPBM binding intensity (ln)” value turned out to be 9.52.

With “GGTAATAAACAATGAAGTACGTAAAGGTAAAATATT [XGTACX_site2647]”, the “gcPBM binding intensity (ln)” value was 9.78.

For the sequence “TGTAAATATAAATGTAATAAATATGTAAAAATAAAT [XGTACX_negctrl_site171]”, the “gcPBM binding intensity (ln)” value was found to be 9.49.

In the case of “ATTTAATTTTCATGATGTACTATAGTTTAATGCACA [XGTACX_site1624]”, the “gcPBM binding intensity (ln)” value came to 9.2.

On to “TAATAATCAAACTATACACACATAAATAGATATATA [CACACA_site6220]”, for which the “gcPBM binding intensity (ln)” value was 9.71.

For “TATTTTCAAAAATATACACACACATAAATATATGTA [CACACA_site8160]”, the “gcPBM binding intensity (ln)” value is 9.56.

On to “TTATATGTATTTCTTTGTACACATTTTTATATATAT [XGTACX_site1462]”, for which the “gcPBM binding intensity (ln)” value amounted to 9.65.

For “ATTATGCACCAACACACACACACACCCCTAAAAAAT [CACACA_site2568]”, the “gcPBM binding intensity (ln)” value amounted to 10.3.

Turning to “CACTTCAAAAAAATATGTACACATATATATATATAT [XGTACX_site3075]”, the “gcPBM binding intensity (ln)” value was found to be 9.2.

Take “TAAATTTTATAAATCTGTACATATGAGCAAGAACAT [XGTACX_site7400]”: the “gcPBM binding intensity (ln)” value was found to be 9.39.

In the case of “TATCATTTTTTTAAAACACACATAATAATATAAATA [CACACA_site2845]”, the “gcPBM binding intensity (ln)” value was 9.15.

Consider “TACCAAAAGAAACACACACACAAAATATATAAATAT [CACACA_site1869]”, for which the “gcPBM binding intensity (ln)” value came to 10.2.

With “TCCCATATATATATATATATATATATATATAATAAT [TGCATGCA_negctrl_site41]”, the “gcPBM binding intensity (ln)” value worked out at 9.03.

For the sequence “TTTGGCTAGTCAAGTTGTACAAAAAAAAAAAAAAAA [XGTACX_site8382]”, the “gcPBM binding intensity (ln)” value was determined as 8.58.

For the sequence “ATACTTTTAATATGCACATGCAAATATGAAATATCG [TGCATGCA_site603]”, the “gcPBM binding intensity (ln)” value came out at 9.03.

As to “AAATAAAAAAAATAAAAGCAATCATAATAAAAATCT [CACACA_negctrl_site161]”, the “gcPBM binding intensity (ln)” value amounted to 9.52.

For the sequence “AATATATTTAATGAGTGTACATTATTTATTATTATT [XGTACX_site6889]”, the “gcPBM binding intensity (ln)” value worked out at 9.29.

As to “AATTTATATTAAAATTGTACATTTCTTCTATAATAC [XGTACX_site8639]”, the “gcPBM binding intensity (ln)” value worked out at 9.17.

Consider “TGTATGTATTTGTGTAGTACGCATAAGTAATAAAAC [XGTACX_site6704]”, for which the “gcPBM binding intensity (ln)” value came to 9.42.

Consider “AAAAAAAATTAAAATAAAATATAAATATAAAATATA [GTGCAC_negctrl_site714]”, for which the “gcPBM binding intensity (ln)” value came out at 9.16.

As to “TATATATTTTTATGCACACACAAAGAAAATTTTCCT [CACACA_site2863]”, the “gcPBM binding intensity (ln)” value was 9.57.

For “AAAGTATAACGGATACCATTTATGTGATTATTTTGT [XGTACX_negctrl_site188]”, the “gcPBM binding intensity (ln)” value was determined as 9.27.

In the case of “AAATATATATAAGCGTGTACACATTCTGAGTGTTGT [XGTACX_site1088]”, the “gcPBM binding intensity (ln)” value turned out to be 9.53.

For the sequence “ATAATAAAAATAAAATGTACATACATAAATATATAT [XGTACX_site6228]”, the “gcPBM binding intensity (ln)” value was 9.53.

“TATCGTTTTATTCGGTTGCACCAAAAAAATAAAATA [GTGCAC_site9408]”: the “gcPBM binding intensity (ln)” value came out at 8.85.

For the sequence “AGCTATAATAAATATACACACATATATAAATATGTA [CACACA_site6583]”, the “gcPBM binding intensity (ln)” value amounted to 9.37.

On to ATATATATATAATAAGTGCAAAAATAATGACCTATA, for which the “gcPBM binding intensity (ln)” value was found to be 9.45.

Consider “TTTTGTCGGAAATCGGATAAGAAGAAAAAAAATAAT [GTGCAC_negctrl_site594]”, for which the “gcPBM binding intensity (ln)” value was found to be 9.2.

On to AAAAAAAAAAAATACGTGCACTATGATATATTATAT, for which the “gcPBM binding intensity (ln)” value was determined as 9.32.

As for “TTCACTCCATATTATACACACACACTAATGAAAAAA [CACACA_site8991]”, the “gcPBM binding intensity (ln)” value worked out at 9.79.

“AAAAAAAAAAAAAGTACACACATACATATAAATATA [CACACA_site8533]”: the “gcPBM binding intensity (ln)” value turned out to be 9.72.
